Source: the RNAGym collection of RNA variant scans (doi:10.7554/elife.90254)
The source gives no read counts; variants with many changes may rest on few reads.

B1: LINE1-mini (parent)
chain: GGCAGAGCUCAACACAGCGUGGCAAAGUGGCUGUGGCUAGACUGCC

Variants of: B1
Experiment: self-cleavage, relative activity (ratio to wild type); higher = more cleavage; in vitro, sequencing; the parent is a self-cleaving ribozyme

Variant	self-cleavage
CGCAGAGUUCAACACAGCGUGGCAAAGUGGCUUUGGCUAGACUGCC [G1C C8U G33U]	0.02
GCUAGAGCUCAAUACGGCGUGGCAAAAUGGCUGUGGCUAGACUGCU [G2C C3U C13U A16G G27A C46U]	0.02
GGCAGAGCUCAACAUACCGUGGCAAAUUGGCUGUGGCUGGACUGCC [C15U G17C G27U A39G]	0.05
GGCAGAGCUCAACACAGCGUGGCUAAUUGGCCCUGGCUAGACUGCC [A24U G27U U32C G33C]	0.01
GUCAGAGCUCAACUCAGCGUGACAAAGUGGCUGUGGCUAGACUGCC [G2U A14U G22A]	0.02
GGCAGAGCUCAACACAGGGUCGCAAAGUGUCUGUGGCUAGACUGCC [C18G G21C G30U]	0.36
GGGAUAGCUAAACACAGCGUGGCAAAGUGACUGUGCCUAGACUGCC [C3G G5U C10A G30A G36C]	0.02
CGCAGAACUCAACACAGCGUGGCAAAGUGGCUGUGGCUAGAGUGGC [G1C G7A C42G C45G]	0
GGUAGAGCUCAACACAGCGUGGCAAAGUGGCUGUGGCGAAACUGCC [C3U U38G G40A]	0
GGCAGAGCUCAACACAGCUUGGCAAAGUGGCUGUGGCUAGACCUCC [G19U U43C G44U]	0.09
GGCAGAGCUAAACACAGAGUGACAAAGUGGCUGUGGCUAGACUGCC [C10A C18A G22A]	0.05
GGCAGAGCUCAAAACAGCGUGGGAUAGUGGCAGAGGUUAGACUGCC [C13A C23G A25U U32A U34A C37U]	0.08
GGCAGAGCUCGACACAGCGUGGCAAAGUGGCCUUGGCUAGACUGCC [A11G U32C G33U]	0.04
GGUAGAGCUCAACACCGCGUGGCAAAAUGGCUGUGGCUAGUCUGCC [C3U A16C G27A A41U]	0.56
GGCAGAGUUCACCACAGCGUGGCAAAGUGUCUGUGGCUAGACUGCC [C8U A12C G30U]	0.02
GGCACAACUCCACACAGCGUGGCUAAGUGGCGGUGGCUAGUCUGCC [G5C G7A A11C A24U U32G A41U]	0.01
GGCAGAGCUCAACACAGCGUGGCAAAGUGGAUGUAGCUAGAGUGCC [C31A G35A C42G]	0
GUCAGACCUUAACACAGCGUGGCAAAGUGGCUGUGGCUAGACUCCC [G2U G7C C10U G44C]	0.04
GGCAGAGGUCAACACAGCGUUGCAAAGUGGCUGUGGCUAGAGUGCC [C8G G21U C42G]	0.06

Variant	self-cleavage
GGCAGAGCUUAACACAGCGUGGCAAAGUGGCUGUGGGUGGAUUGCC [C10U C37G A39G C42U]	0.02
GGCAGAGCUCAACACAGCGUGGCCAAGUGGCUGAGGGUAGACUGCC [A24C U34A C37G]	0.01
GGCAGCGCUCACCACAGCGUGGCAAACUGGCUGUGGCUAGACUGCC [A6C A12C G27C]	0.03
GGCAGAGCUCAACACAGCGUGUCAAAGUGGGUGUGGCUGGACUGCC [G22U C31G A39G]	0.03
GGCAGAGCUCAACACGUCGUGGCAAAGUGGCUGUGGGUAGACUGCC [A16G G17U C37G]	0
GGCAGAGCUUAUCACAGCGUGGCAUAGUGGCUAUGGCUAGACUGCC [C10U A12U A25U G33A]	0.05
GGCAGAGAUCAAUACAGGGUGGCAAAGUGGCUGUGGCUAGCUUGCC [C8A C13U C18G A41C C42U]	0.17
UGCAGAGCUCGAGACAGGGUGGCAAAGUGGCUGUGGCUAGACUGCC [G1U A11G C13G C18G]	0.01
GGCAUAGCUCAACACAGCGUCGCAAAGUGGCUGUGGCGAGACUGCC [G5U G21C U38G]	0.01
GGCAGAGCUCAAAACAGCGAGGCCAAGUGGAUGUGGCUAGUCUGUC [C13A U20A A24C C31A A41U C45U]	0
GGCAGAGCUCAACAGAGCGUUGCAAAGUGGCUGUGGCCAGACUGCC [C15G G21U U38C]	0
GGCAGAGCUCAACAUCGCGUGGCAAAGUGACUGUGGCUAGACUGCC [C15U A16C G30A]	0.02
GACAGCGCUCAACACAGCGUGGCACAGUGUCUGUGGGUAGACUGCC [G2A A6C A25C G30U C37G]	0.08
GGCAUAGCUCAACACAGCGUGGCAAACUGGCUGUGGCUAGAAAGCC [G5U G27C C42A U43A]	0.03
GGCAGAGCUCAACACGGCGUGGCAAAGUGGCUGUAGUUAGACUGCC [A16G G35A C37U]	0.02
GAUAGACCUCAUCACAGCUUGGCAAAGUGGCUGUGGCUAGACUGCC [G2A C3U G7C A12U G19U]	0.32
GGUAGAGGUCAACAUCGGGUGGCAAUGUGGCUGUGGCUAGACUGCC [C3U C8G C15U A16C C18G A26U]	0.11
GGCAGACGUCAGCACAGCGAGGCAAAGUGGCUGUGGCUAGACUGCC [G7C C8G A12G U20A]	0.09
GGCGGAGCUCAACACAGCGUGGGGAAGUGGCUGUGGCUAUACUGCC [A4G C23G A24G G40U]	0.07

Variant	self-cleavage
GGCAGAGAUCUACACGGCAUGGCAAAGUGGCUGUGGCUAGACUGCC [C8A A11U A16G G19A]	0.02
GGCAGAGCUCAACACACCGUGCCAAAGGGGCUGUGGCUAGACUGCA [G17C G22C U28G C46A]	0.06
GGCAGGGCUCAUCACAGCGUGGCAAAUUGGUUGUGGCUAGACCGCA [A6G A12U G27U C31U U43C C46A]	0.03
GGCAGAGCUAAACACAGCGUGGCUAAGUGGCUGUCGCUAGACUUCC [C10A A24U G35C G44U]	0.02
GGCAGAGCCCAACACAGCGUAGCAAUGUGGCUGUGGAUAGACUGCC [U9C G21A A26U C37A]	0.03
GGCAGAGCUCAACACAGCGUGGGAAAAUUGCUGUGGCCAUACUGCC [C23G G27A G29U U38C G40U]	0.14
GGCAGAGCUCAAUACAGCGGGGUAGAGUGGCUGUGGCUAGACUGCC [C13U U20G C23U A25G]	0.01
UGCAGAGUUCAACACAGCGUGGCAAAGUUGGUGUGGCUAGACUGCC [G1U C8U G29U C31G]	0.06
GGCACAGCACAACACAGCGUGGCAAAGUGGCUGUGGCUAGACUGGC [G5C U9A C45G]	0.26
GGCAGAGCUCAACACAGCGUGGCAAAGUGCCAGUGGCUAGACUUCC [G30C U32A G44U]	0.03
GGCAGAGUUCAACACAGCGUGGCAAUGUGGCUGCGGCUAGACUGCU [C8U A26U U34C C46U]	0.58
GGCAGAGCUAAACGCAGCGUAGCAAAGUGGCUGUGGCUACACUGCC [C10A A14G G21A G40C]	0.02
CGCAGAGCUCGAGACCGCGUGGCAAAGUGGCUGUGGCUAGACUGCC [G1C A11G C13G A16C]	0.01
GGCAGAGCUCAACACAGCGUGACAAAGUCUCUGUGGCAAGACUGUC [G22A G29C G30U U38A C45U]	0.23
GGAAGAGCUCAACGCAGCGUGACCAAGUGGCUGUGGCUAGACUGUC [C3A A14G G22A A24C C45U]	0.09
GGCAGAGCGCACCACAGCGUGGCAAAGUGGCUGUGGCUAGACAGCC [U9G A12C U43A]	0
GGCAGAGCUCAACACAGCGUGACAAAGCGGCUGUGGCUAGAAUUCC [G22A U28C C42A G44U]	0.09
GGCAGAGCUCAAUACAGCGUGGUAAAUUGGCUGUGGCUAUACUGCC [C13U C23U G27U G40U]	0.05
